Assay results reported in PubChem BioAssay AID602310 (National Center for Advancing Translational Sciences (NCATS), 2012).
Among all 410,000 compounds or so, about 310 (0.076%) were called active. The inconclusive results got no clear call from the source; some entries with a clear call stand among them for comparison. Calls follow the shape of the dose curve; as a rule, active = well fitted curve in the direction sought with a large enough effect; inconclusive = small, poorly fitted or top-dose-only effect; inactive = flat fitted curve, though single readings scatter. Potencies beside an inconclusive call are fits to weak or partial responses and may not hold up.

Each compound was assayed against DNA dC->dU-editing enzyme APOBEC-3G (Homo sapiens) (UniProt Q9HC16) (assay: qHTS for Inhibitors of Vif-A3G Interactions: qHTS). Details: HeLa A3G-eYFP + Vif (tagged APOBEC3G with the HIV-1 protein that degrades it), YFP fluorescence, overnight; series mostly up to 46.1 µM; activity, negative = active: at the top concentration.
Method in brief: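 HeLa cells stably expressing Vif and C-terminally eYFP-tagged A3G, seeded overnight at 37 deg C, then exposed to compound by pintool overnight at 37 deg C. Rise in yellow fluorescence (Ex 488/Em 500-530, Acumen) marks blocked Vif-driven A3G degradation.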
% is scaled to controls: 0 for no effect and ±100 for the full control effect; potency is read from the fitted curve at half-maximal effect; tags tell the direction and shape of the fitted curve.
Also: nearly all actives have a fitted effect of over 60% in size.
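For activity, negative = active in this document: hits raise eYFP signal because A3G escapes Vif-driven loss.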

Sequence of UniProt Q9HC16 (Q9HC16 whole entry, looked up): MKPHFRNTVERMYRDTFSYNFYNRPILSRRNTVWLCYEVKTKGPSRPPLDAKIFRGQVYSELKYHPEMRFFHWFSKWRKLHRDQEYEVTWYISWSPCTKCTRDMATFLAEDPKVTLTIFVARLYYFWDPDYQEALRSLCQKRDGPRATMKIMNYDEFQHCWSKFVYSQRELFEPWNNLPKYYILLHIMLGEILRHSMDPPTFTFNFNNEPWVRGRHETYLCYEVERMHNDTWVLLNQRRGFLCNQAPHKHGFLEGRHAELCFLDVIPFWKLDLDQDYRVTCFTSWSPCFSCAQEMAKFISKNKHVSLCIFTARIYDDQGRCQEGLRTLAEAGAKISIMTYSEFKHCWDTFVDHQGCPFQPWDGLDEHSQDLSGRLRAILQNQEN

| Structure (SMILES) | Potency | activity, negative = active |
| --- | --- | --- |
| C=CCn1c(O)c(C=Nc2ccc(N(CC)CC)cc2)c(=O)[nH]c1=O | inconclusive: 20 µM [inhibitor, single point] |  |
| COc1ccc(OC(=O)N2C/C(=C/c3ccccc3)C(=O)/C(=C\c3ccccc3)C2)cc1 | inconclusive: 3.16 µM [inhibitor, full curve] |  |
| C=C1C(=O)O[C@@H]2C[C@@H](C)[C@H]3C=CC(=O)[C@]3(O)C[C@@H]12 | inconclusive: 35.5 µM [inhibitor, single point] |  |
| Nc1ccc2nc3c(c(Cl)c2c1)CCCC3 | inconclusive: 6.31 µM [inhibitor, full curve] |  |
| Cc1ccccc1-n1c(/C=C/c2ccc(N(C)C)cc2)nc2ccccc2c1=O | active: 3.16 µM |  |
| O=[N+]([O-])c1ccc(N2CCOCC2)c2c1no[n+]2[O-] | inconclusive: 7.94 µM [inhibitor, partial curve] |  |
| C=C1C(=O)O[C@H]2[C@H]1[C@H](OC(=O)CC(=O)O[C@@H]1C[C@@H](C)[C@@H]3C=CC(=O)[C@@]3(C)[C@H]3OC(=O)C(=C)[C@H]13)C[C@@H](C)[C@H]1C=CC(=O)[C@]12C | inconclusive: 35.5 µM [inhibitor, single point] |  |
| C/C(=C\c1ccc(N(C)C)cc1)[N+](=O)[O-] | inconclusive: 20 µM [inhibitor, partial curve, poor fit] |  |
| O=C1NC(=O)C(=Cc2cn(CCOc3ccc4c(c3)OCO4)c3ccccc23)C(=O)N1 | inconclusive: 20 µM [inhibitor, partial curve, poor fit] |  |
| COc1cc(/C=C/c2nc3ccccc3c(=O)n2-c2ccccc2O)ccc1O | inconclusive: 22.4 µM [inhibitor, single point] |  |
| COC(=O)C1=C(c2cccc(OC)c2OC)C[C@@H]2CC[C@H]1N2C(=O)NC1CC1 |  | inactive: 0.46% |
| C[C@H]1CC[C@@H]2[C@@H](C)[C@H]3[C@H](C[C@H]4[C@@H]5CC=C6C[C@@H](O[C@@H]7O[C@H](CO)[C@H](O)[C@H](O[C@@H]8O[C@H](CO)[C@@H](O)[C@H](O)[C@H]8O)[C@H]7O[C@@H]7O[C@@H](C)[C@H](O)[C@@H](O)[C@H]7O)CC[C@]6(C)[C@H]5CC[C@]34C)N2C1 |  | inactive: 1.28% |
| CCn1c(O)c(C=Nc2ccc(S(N)(=O)=O)cc2)c(=O)n(CC)c1=S | inconclusive: 5.01 µM [inhibitor, full curve, poor fit] |  |
| O=c1[nH]c(=S)n(CCC2=CCCCC2)c(O)c1/C=N/Nc1ccccc1 |  | inactive: -6.03% |
| Cc1ccc(-c2cc(-c3ccc(C)cc3)[n+](-c3ccccc3)c(-c3ccc(C)cc3)c2)cc1 |  | inactive: -15.4% |
| N#CC1=C(N)Oc2c(c(=O)sc3ccccc23)C1c1cccnc1 (stereo unspecified) | inconclusive: 7.94 µM [inhibitor, partial curve, poor fit] |  |
| COc1cc(/C=C2\C(=O)NC(=O)N(c3ccccc3)C2=O)cc(OC)c1O |  | inactive: 0.719% |
| Cc1ccccc1N1C(=O)NC(=O)/C(=C\c2ccc3c(c2)CCCN3Cc2ccccc2)C1=O | inconclusive: 25.1 µM [inhibitor, single point] |  |
| Cn1cc([N+](=O)[O-])c(C(=O)Nc2ccc3c(C(F)(F)F)cc(=O)oc3c2)n1 | inconclusive: 28.2 µM [inhibitor, single point] |  |
| Cc1cc(/C=C2\C(=O)NC(=O)N(c3ccc(Br)cc3)C2=O)c(C)n1C | inconclusive: 7.08 µM [inhibitor, full curve, poor fit] |  |
| CC(C)N1C(=O)/C(=C/C=C/c2ccco2)C(=O)N(Cc2ccco2)C1=O | inconclusive: 22.4 µM [inhibitor, partial curve, poor fit] |  |

| Structure (SMILES) | Potency | activity, negative = active |
| --- | --- | --- |
| COc1ccc(-n2c(O)c(/C=C3\C=Nc4ccc(Br)cc43)c(=O)[nH]c2=O)c(OC)c1 | inconclusive: 35.5 µM [inhibitor, single point] |  |
| Nc1ccc2c3c(cccc13)-c1ccccc1-2 | inconclusive: 2.82 µM [inhibitor, partial curve, poor fit] |  |
| C1=NCCc2c1[nH]c1ccccc21 | inconclusive: 20 µM [inhibitor, single point] |  |
| Oc1ccccc1O | inconclusive: 31.6 µM [inhibitor, single point] |  |
| Cc1cc(N2CCCC2)ccc1C=C(C#N)C#N | inconclusive: 5.01 µM [inhibitor, single point] |  |
| Cc1ccc(CN2C3CCCC2CC(NC(=S)NCc2ccccc2)C3)cc1 (stereo unspecified) |  | inactive: -3.86% |
| Cn1cc(/C=C2\C(=O)NC(=O)N(c3ccccc3)C2=O)c2ccccc21 | inconclusive: 35.5 µM [inhibitor, single point] |  |
| O=[N+]([O-])c1ccc(N(CCO)CCO)c2c1no[n+]2[O-] | inconclusive: 3.55 µM [inhibitor, single point] |  |
| CC(C)n1c(/C=C/[C@@H](O)C[C@@H](O)CC(=O)O)c(-c2ccc(F)cc2)c2ccccc21 | inconclusive: 2.51 µM [inhibitor, partial curve, poor fit] |  |
| COc1cc(CN2CC3CC(C2)c2cccc(=O)n2C3)cc(OC)c1OC (stereo unspecified) |  | inactive: 0.274% |
| COc1cccc(-c2nn(CCC#N)cc2C(=O)Nc2ccccc2Cl)c1 | inconclusive: 20 µM [inhibitor, single point] |  |
| COc1cc(C(=O)N/N=C/c2ccc(OC(=O)N3CCOCC3)cc2)cc(OC)c1OC | inconclusive: 20 µM [inhibitor, single point] |  |
| COc1ccc(-c2noc(=O)n2Cc2cc(C)ccc2C)cc1 | inconclusive: 10 µM [inhibitor, partial curve, poor fit] |  |
| CCC(=O)N1CC(=O)Nc2ccc(Cl)cc2C1c1ccc(F)cc1 (stereo unspecified) | inconclusive: 25.1 µM [inhibitor, single point] |  |
| CC(=O)O[C@@]12CO[C@@H]1C[C@H](O)[C@@]1(C)C(=O)[C@H](O)C3=C(C)[C@@H](O)C[C@@](O)([C@@H](OC(=O)c4ccccc4)C12)C3(C)C (stereo partly specified) | inconclusive: 8.91 µM [inhibitor, partial curve] |  |
| O=[N+]([O-])c1ccc(N2CC2)c([N+](=O)[O-])c1 |  | inactive: -2.28% |
| O=C(O)Cn1cc(/C=C2\C(=O)NC(=O)N(c3ccc(Br)cc3)C2=O)c2ccccc21 | inconclusive: 4.47 µM [inhibitor, partial curve, poor fit] |  |
| CC12CC[C@H]3[C@@H](CCC4(O)C[C@H](O)CCC34/C=N/NC(=O)c3ccccc3Cl)C1(O)CCC2C1=CC(=O)OC1 (stereo partly specified) |  | inactive: 1% |
| C=C(C=O)CC1CC(O)[C@]2(C)OC3CC4OC5C[C@]6(C)O[C@]7(C)CCC8OC9C[C@]%10(C)OC%11C(C)=CC(=O)OC%11CC%10OC9C[C@@H](C)C8OC7CC6O[C@]5(C)CC5OC5C4OC3CC2O1 (stereo partly specified) | inconclusive: 1.58 µM [inhibitor, partial curve, poor fit] |  |
| Cc1ccc(N2C(=O)NC(=O)/C(=C/c3ccc(OC(=O)c4cccs4)cc3)C2=O)cc1 |  | inactive: -0.227% |
| Nc1c(Br)cc2c3c(cccc13)-c1ccccc1-2 | inconclusive: 10 µM [inhibitor, partial curve, poor fit] |  |

| Structure (SMILES) | Potency | activity, negative = active |
| --- | --- | --- |
| CCCCn1c(O)c(C(C)=NCc2ccco2)c(=O)[nH]c1=O |  | inactive: -6.2% |
| CC[N+](C)(CC)CCCOC(=O)C(O)(c1ccccc1)C1CCCCC1 (stereo unspecified) |  | inactive: -0.324% |
| CC(Cc1ccsc1)NCc1cn[nH]c1-c1ccc(F)cc1F (stereo unspecified) |  | inactive: 6.16% |
| CC1(C)OC1COc1c2occc2cc2ccc(=O)oc12 (stereo unspecified) |  | inactive: -8.3% |
| Cc1cc(NC(=O)CCl)nn1C | inconclusive: 28.2 µM [inhibitor, single point] |  |
| Cc1cc(C)cc(N2C(=O)/C(=C\c3ccc(N4CCN(C)CC4)o3)C(=O)NC2=S)c1 | inconclusive: 11.2 µM [inhibitor, partial curve] |  |
| Clc1ccc(C(Cl)(Cl)Cl)c(Cl)c1 |  | inactive: 0.664% |
| COc1ccc(OCC(=O)N2CCN(Cc3cccc(OC)c3OC)CC2)cc1 |  | inactive: 7.88% |
| COC(=O)C1=C(c2cc3ccccc3o2)C[C@@H]2CC[C@H]1N2C(=O)NCc1ccccc1 | inconclusive: 35.5 µM [inhibitor, single point] |  |
| CSc1ncc(/C=C2/C(=O)NC(=O)N(c3ccc(C)cc3)C2=O)cn1 |  | inactive: 1.58% |
| CC(=O)Nc1cccc(-c2ccnc3c2CC(C(=O)NCc2ccco2)O3)c1 (stereo unspecified) | inconclusive: 4.47 µM [inhibitor, full curve, poor fit] |  |
| CN1CCN(c2ccc(/C=C3\C(=O)NC(=S)N(c4cccc(Br)c4)C3=O)o2)CC1 | active: 22.4 µM |  |
| O=C1NC(=O)N(c2ccccc2F)C(=O)/C1=C/c1cn(CC(=O)N2CCOCC2)c2ccccc12 |  | inactive: -15% |
| CCCCN1C(=O)/C(=C/c2ccc(N(C)C)cc2)C(=O)N(Cc2ccco2)C1=O | inconclusive: 28.2 µM [inhibitor, single point] |  |
| Oc1cccc2cccnc12 | inconclusive: 6.31 µM [inhibitor, full curve] |  |
| Cc1ccc(C(=O)N2c3ccccc3Sc3ccccc32)cc1 | inconclusive: 35.5 µM [inhibitor, single point] |  |
| C=C1C(=O)O[C@@H]2C[C@@H](C)[C@@H]3C=CC(=O)[C@@]3(C)[C@@H](O)[C@H]12 | inconclusive: 0.562 µM [inhibitor, full curve, poor fit] |  |
| N#CC1c2ccccc2-n2nncc2CN1Cc1cc(Cl)cc(Cl)c1 (stereo unspecified) | inconclusive: 4.47 µM [inhibitor, full curve, poor fit] |  |
| CCCC/C(C)=C/[C@@H](NP(=O)(c1ccccc1)c1ccccc1)c1ccccc1 | inconclusive: 35.5 µM [inhibitor, partial curve, poor fit] |  |
